Experimental findings from the supplement of paper PMC10037445 are described below.

The test system of assay [1] is RAW-Dual. Briefly: NF-kB SEAP reporter activity, fold change vs agonist alone; cytotoxicity flag (confluency mask): cytotoxic (confluency <70% of control); higher = enhanced NF-kB activity. The method in brief:
(§1)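 RAW-Dual macrophages were seeded in DMEM at 50,000 cells/well in 384-well plates, given 50 nL of library stock by pin tool, and given a PRR agonist 1 h later. Plates were held at 37 °C, 5% CO2 for 20 hours, after which supernatant was read for IRF by QuantiLuc luminescence and for NF-κB by QuantiBlue absorbance at 620 nm. Reporter activity is expressed as fold change over wells that received agonist alone. A well was called cytotoxic when IncuCyte confluency fell below 70% of agonist controls in both mask sets.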

The subject of assay [2] is RAW-Dual. Put plainly: NF-kB SEAP reporter activity, fold change vs agonist alone; higher = enhanced NF-kB activity. The essentials:
as §1

The subject of assay [3] is RAW-Dual. Briefly: NF-kB SEAP reporter activity, fold change vs agonist alone; cytotoxicity flag (confluency mask): not cytotoxic; higher = enhanced NF-kB activity. The method in brief: as §1
The mark [4] stands for this setting: agonist: ODN 1826 (TLR9) 0.5 ug/mL.
The mark [5] stands for this setting: agonist: Pam2CSK4 (TLR2/6) 0.1 ug/mL.
[6] abbreviates: agonist: Pam3CSK4 (TLR2/1) 0.1 ug/mL.
Where [7] appears, read: library stock concentration (final ~1000-fold dilution): 10 mM, cytotoxicity flag (confluency mask): cytotoxic (confluency <70% of control), agonist: Imiquimod (TLR7) […].
The mark [8] stands for this setting: library stock concentration (final ~1000-fold dilution): 10 mM, cytotoxicity flag (confluency mask): cytotoxic (confluency <70% of control), agonist: MPLA (TLR4) […].
The mark [9] stands for this setting: library stock concentration (final ~1000-fold dilution): 10 mM, cytotoxicity flag (confluency mask): not cytotoxic, agonist: Imiquimod (TLR7) […].
[10] abbreviates: library stock concentration (final ~1000-fold dilution): 10 mM, cytotoxicity flag (confluency mask): not cytotoxic, agonist: MPLA (TLR4) […].

The structures appear in SMILES notation. Over roughly 2,900 compounds, “NF-kB SEAP reporter activity, fold change vs agonist alone” has its median near 0.99; the highest 2% begin near 2.6. Some of the results follow.

Take `Cl.NC(=O)c1cnc(NC2CCCCC2N)nc1Nc1cccc(-n2nccn2)c1` (stereo unspecified) (library stock concentration (final ~1000-fold dilution): 10 mM): the “NF-kB SEAP reporter activity” value in the assay with RAW-Dual [1] (agonist: LPS (TLR4) 0.1 ug/mL) was determined as 0.377; with RAW-Dual [1] (setting [4]), 0.204; in the assay with RAW-Dual [1] (setting [5]) it was 0.315; in the assay on RAW-Dual [1] (setting [6]) it was 0.248.
Take `Cl.NC(=O)c1cnc(NC2CCCCC2N)nc1Nc1cccc(-n2nccn2)c1` (stereo unspecified): the “NF-kB SEAP reporter activity” value is 0.258 with RAW-Dual [2] (setting [7]) and 0.336 with RAW-Dual [2] (setting [8]).
On to `COc1ccc(C(=C2C(=O)Nc3ccccc32)c2ccc(OC)cc2)cc1`, for which the entries for the “NF-kB SEAP reporter activity” value in the assay on RAW-Dual [2] (setting [9]) and in the assay on RAW-Dual [2] (setting [10]) were 0.748 and 0.978, respectively.
For the compound `COc1ccc(C(=C2C(=O)Nc3ccccc32)c2ccc(OC)cc2)cc1` (library stock concentration (final ~1000-fold dilution): 10 mM), the “NF-kB SEAP reporter activity” value in the assay on RAW-Dual [3] (agonist: LPS (TLR4) 0.1 ug/mL) stood at 1.04; with RAW-Dual [3] (setting [4]) it was 0.585; in the assay on RAW-Dual [3] (setting [5]), 0.692; in the assay on RAW-Dual [3] (setting [6]), 0.323.
Turning to `CCCN(CCC)S(=O)(=O)c1ccc(C(=O)O)cc1` (library stock concentration (final ~1000-fold dilution): 10 mM), the “NF-kB SEAP reporter activity” value with RAW-Dual [3] (agonist: LPS (TLR4) 0.1 ug/mL) was 1.13; with RAW-Dual [3] (setting [4]) it was 0.969; in the assay with RAW-Dual [3] (setting [5]) it was 1.11; in the assay with RAW-Dual [3] (setting [6]), 0.965.
For the compound `CCCN(CCC)S(=O)(=O)c1ccc(C(=O)O)cc1`, the “NF-kB SEAP reporter activity” value in the assay with RAW-Dual [2] (setting [9]) was determined as 0.908; in the assay with RAW-Dual [2] (setting [10]) it was 1.07.
For the compound `O=c1[nH]c(=S)[nH]c(-c2ccccc2)c1Cc1c(O)ccc2ccccc12`, the results for the “NF-kB SEAP reporter activity” value in the assay with RAW-Dual [2] (setting [9]) and in the assay with RAW-Dual [2] (setting [10]) were 1.16 and 1.19, respectively.
Consider `O=c1[nH]c(=S)[nH]c(-c2ccccc2)c1Cc1c(O)ccc2ccccc12` (library stock concentration (final ~1000-fold dilution): 10 mM), for which the “NF-kB SEAP reporter activity” value was 1.17 in the assay on RAW-Dual [3] (agonist: LPS (TLR4) 0.1 ug/mL), 1.27 in the assay on RAW-Dual [3] (setting [4]), 1.03 in the assay on RAW-Dual [3] (setting [5]) and 1.25 in the assay on RAW-Dual [3] (setting [6]).
With `CCCC(CCC)C(N)=O`, the “NF-kB SEAP reporter activity” value with RAW-Dual [2] (setting [10]) is 1.18.
Regarding `CCCC(CCC)C(N)=O` (library stock concentration (final ~1000-fold dilution): 10 mM), the “NF-kB SEAP reporter activity” value in the assay with RAW-Dual [3] (agonist: LPS (TLR4) 0.1 ug/mL) came to 1.11; in the assay with RAW-Dual [3] (setting [4]), 1; with RAW-Dual [3] (setting [5]), 1.16; in the assay on RAW-Dual [3] (setting [6]) it was 0.876.
For `CC(NC(=O)Cc1cc(F)cc(F)c1)C(=O)NC(C(=O)OC(C)(C)C)c1ccccc1` (stereo unspecified) (library stock concentration (final ~1000-fold dilution): 10 mM), the “NF-kB SEAP reporter activity” value with RAW-Dual [3] (agonist: LPS (TLR4) 0.1 ug/mL) worked out at 1.34; in the assay on RAW-Dual [3] (setting [4]) it was 1.29; in the assay on RAW-Dual [3] (setting [5]), 1; with RAW-Dual [3] (setting [6]), 0.878.
On to `CC(NC(=O)Cc1cc(F)cc(F)c1)C(=O)NC(C(=O)OC(C)(C)C)c1ccccc1` (stereo unspecified), for which the “NF-kB SEAP reporter activity” value in the assay on RAW-Dual [2] (setting [9]) was 1.14; in the assay on RAW-Dual [2] (setting [10]), 1.24.
As to `CC1CC2C3CCC4=CC(=O)C=CC4(C)C3(F)C(O)CC2(C)C1(O)C(=O)CO` (stereo unspecified), the “NF-kB SEAP reporter activity” value with RAW-Dual [2] (library stock concentration (final ~1000-fold dilution): 1 mM, cytotoxicity flag (confluency mask): not cytotoxic, agonist: Imiquimod (TLR7) […]) turned out to be 1.18; in the assay with RAW-Dual [2] (library stock concentration (final ~1000-fold dilution): 1 mM, cytotoxicity flag (confluency mask): not cytotoxic, agonist: MPLA (TLR4) […]), 1.28.
Turning to `CC1CC2C3CCC4=CC(=O)C=CC4(C)C3(F)C(O)CC2(C)C1(O)C(=O)CO` (stereo unspecified) (library stock concentration (final ~1000-fold dilution): 1 mM), the “NF-kB SEAP reporter activity” value with RAW-Dual [3] (agonist: LPS (TLR4) 0.1 ug/mL) was determined as 1.07; in the assay on RAW-Dual [3] (setting [4]), 1.16; in the assay on RAW-Dual [3] (setting [5]), 1.5; in the assay with RAW-Dual [3] (setting [6]), 1.12.
Regarding `O=C(O)c1cc2ccccc2c(Cc2c(O)c(C(=O)O)cc3ccccc23)c1O.OCCOCCN1CCN(C(c2ccccc2)c2ccc(Cl)cc2)CC1`, the “NF-kB SEAP reporter activity” value with RAW-Dual [2] (setting [9]) is 1.24; in the assay with RAW-Dual [2] (setting [10]), 1.06.
Take `O=C(O)c1cc2ccccc2c(Cc2c(O)c(C(=O)O)cc3ccccc23)c1O.OCCOCCN1CCN(C(c2ccccc2)c2ccc(Cl)cc2)CC1` (library stock concentration (final ~1000-fold dilution): 10 mM): the “NF-kB SEAP reporter activity” value with RAW-Dual [3] (agonist: LPS (TLR4) 0.1 ug/mL) worked out at 0.958; in the assay with RAW-Dual [3] (setting [4]) it was 0.716; in the assay with RAW-Dual [3] (setting [5]), 1.03; in the assay on RAW-Dual [3] (setting [6]), 0.704.
The matching figures for `O=C(O)CSc1nnc(Br)n1-c1ccc(C2CC2)c2ccccc12` (library stock concentration (final ~1000-fold dilution): 10 mM): 1.32, 1.01, 1.24 and 1.18.
For the compound `O=C(O)CSc1nnc(Br)n1-c1ccc(C2CC2)c2ccccc12`, the “NF-kB SEAP reporter activity” value in the assay on RAW-Dual [2] (setting [10]) was found to be 0.983.
As for `O=C(NO)c1cnc(NC2(c3ccccc3)CC2)nc1` (library stock concentration (final ~1000-fold dilution): 10 mM), the “NF-kB SEAP reporter activity” value was determined as 2.94 in the assay with RAW-Dual [1] (agonist: LPS (TLR4) 0.1 ug/mL), 1.6 in the assay with RAW-Dual [1] (setting [4]), 0.654 in the assay with RAW-Dual [1] (setting [5]) and 1.4 in the assay with RAW-Dual [1] (setting [6]).
As for `O=C(NO)c1cnc(NC2(c3ccccc3)CC2)nc1`, the “NF-kB SEAP reporter activity” value with RAW-Dual [2] (setting [7]) was 1.46; in the assay on RAW-Dual [2] (setting [8]) it was 2.22.
For `COCCOc1cc(F)c2c(Nc3ccc(NC(=O)Cn4cc(C(C)C)nn4)cc3)ncnc2c1`, the “NF-kB SEAP reporter activity” value is 1.14 in the assay on RAW-Dual [2] (setting [9]) and 1.01 with RAW-Dual [2] (setting [10]).
`COCCOc1cc(F)c2c(Nc3ccc(NC(=O)Cn4cc(C(C)C)nn4)cc3)ncnc2c1` (library stock concentration (final ~1000-fold dilution): 10 mM): the “NF-kB SEAP reporter activity” value was determined as 1.36 in the assay on RAW-Dual [3] (agonist: LPS (TLR4) 0.1 ug/mL), 0.989 in the assay on RAW-Dual [3] (setting [4]), 1.16 in the assay on RAW-Dual [3] (setting [5]) and 1.24 in the assay with RAW-Dual [3] (setting [6]).
The matching figures for `CCN1CCN(Cc2ccc(Nc3ncc(F)c(-c4cc(F)c5nc(C)n(C(C)C)c5c4)n3)nc2)CC1.CS(=O)(=O)O` (library stock concentration (final ~1000-fold dilution): 10 mM): 2.05, 0.215, 0.965 and 1.38.
As to `CCN1CCN(Cc2ccc(Nc3ncc(F)c(-c4cc(F)c5nc(C)n(C(C)C)c5c4)n3)nc2)CC1.CS(=O)(=O)O`, the “NF-kB SEAP reporter activity” value in the assay on RAW-Dual [2] (setting [9]) amounted to 1.42; in the assay on RAW-Dual [2] (setting [10]) it was 2.33.
In the case of `CCc1ccc(OCc2ccccc2C(=O)Nc2ccc3nc(C)cc(N)c3c2)cc1.Cl` (library stock concentration (final ~1000-fold dilution): 10 mM), the “NF-kB SEAP reporter activity” value in the assay with RAW-Dual [1] (agonist: LPS (TLR4) 0.1 ug/mL) turned out to be 0.212; in the assay on RAW-Dual [1] (setting [4]), 0.198; with RAW-Dual [1] (setting [5]), 0.0939; in the assay on RAW-Dual [1] (setting [6]), 0.336.
For the compound `CCc1ccc(OCc2ccccc2C(=O)Nc2ccc3nc(C)cc(N)c3c2)cc1.Cl`, the results for the “NF-kB SEAP reporter activity” value in the assay on RAW-Dual [2] (setting [7]) and in the assay with RAW-Dual [2] (setting [8]) were 0.265 and 0.216, respectively.
